“And” between values parts separate entries of the source, which are not always exact repeats. Equal values may be shown once. At least one peptide structure holds a part that was inferred or is arguable (an end, a ring closure or a residue). Square brackets hold non-standard residues; d marks the D form. Peptide text beside a SMILES is read from it. * marks the point of attachment. Agmatine = N=C(N)NCCCCN*; Nle = CCCC[C@H](N)C(=O)O; dNMeA = CN[C@H](C)C(=O)O
Experiments:
[1] = test system: superfused pituitary cell system; experiment: In vitro GH release, superfused pituitary cell system; type: cell-based, rat; conditions: for Released GH Level Average / Released GH Level: peptides administered for 3 minutes at 10M^-9 Concentration; for Released GH Level: individual values; for Potency %: relative to GH-RH^1-29 standard, 3 minutes at 10M^-9 Concentration
Method: The compounds of the present invention were tested both in vitro in rat cell culture and in vivo in rats to determine GHRH activity. The protocols are as follows:
Twenty-four adult male or female Sprague-Dawley strain rats were decapitated for each experiment. After posterior lobes were removed, the anterior pituitaries were cut into small pieces and incubated in a Dubnoff incubator for 45 minutes at 37° C. in 10 ml. of oxygenated Medium 199 (GIBCO) containing 0.5% collagenase (Sigma Type 1), 0.25% bovine serum albumin (BSA) (Sigma RIA grade), and 5 μg./ml. Gentamicin Sulphate (Sigma). After this incubation, there were no apparent changes in the appearance of the tissue. However, the fragments could be easily dipsersed into single cells by repeated suction and expulsion from a Gilson Pipetman. After 30 to 60 Pipetman operations, the tissue fell apart; a second collagenase incubation was not usually necessary. The cell suspension was centrifuged at room temperature for 10 minutes at […]. The cell pellet was then resuspended in 1.0 ml. of medium. A small aliquot was diluted for counting the cells, and the rest or one suspension was divided into 2 equal volumes. Each volume (containing about 5× 10^6 cells, usually between 3.5 and 7.0×10^6) was mixed with 0.5 ml. Sephadex G-15 which had been equilibrated with previously oxygenated medium. The mixture of pituitary cells and Sephadex was transferred into 2 chambers of the superfusion apparatus and perfused with the medium. The medium was always freshly prepared in a way similar to that used for the enzymatic dispersion, but with the omission of the collagenase, passed through a millipore filter, and gassed continuously with a mixture of O2 (95%) and CO2 (5%) during the experiment.
The superfusion apparatus (FIG. 1) consisted of a number of 1 ml. plastic syringe barrels (modified by cutting off their distal end) and mounted vertically in a Plexiglas holder which was kept at 37° C. by circulating water. The unit was constructed in our laboratory workshop. Properly greased O-rings prevented the leakage of the circulating water around the syringe barrels. Each barrel was fitted with plungers at both ends. Holes were drilled in the plungers to accommodate plastic tubing. The lower plunger was covered with a small piece of 30 μm-pore nylon net to keep the Sephadex beads from escaping. The "pores" between the beads were small enough to prevent the pituitary cells from escaping and large enough to allow a practically unrestricted flow of medium through the cell column. The upper plunger tubing was used for directing the flow through the chamber from the medium reservoir. The flow through the system (0.5 ml min) was controlled with a multichannel peristaltic pump (Gilson) Minipulse type HP-8 which was placed after the superfusion chamber; the tubing of the lower plunger was connected to the pump and from there to a four-channel fraction collector (a modified Gilson type Anacol SC30). Thus, the system was operated with a negative pressure in order to get fewer fluctuations in the flow rate. The medium from the chamber was collected into disposable borosilicate glass tubes containing 30 μl of 1N HCl for immediate acidifying of the perfusate to prevent the loss of ACTH activity at neutral or alkaline pH (14, 34, 38).
ACTH radioimmunoassays were performed on 100 μl aliquots of undiluted superfusion medium essentially as described elsewhere (14); however, the separation of bound and free ACTH was accomplished by a polyethylene glycol facilitated second antibody method. Rat GH was measured in aliquots of undiluted or diluted superfusates to determine either basal or stimulated secretion. The antisera (a-hACTH batch No. 2, a-rGH S-4) and the hormones (rGH RP-1 and I-4, hACTH) for both ACTH and GH RIA were provided by NHPP (NIADDK, NIH).
In vitro effect of synthetic GH-RH analogs on the GH
release used in the superfused pituitary cell system method. […]

release of pituitary GH = experiment: In vivo release of pituitary GH after one single i.v. injection in female rats; design: species or system rat; conditions: for Relative Potency (based on the effect of hpGHRH at the actual time) / Responses in plasma GH in ng GH/ml: 1.0 ug/(female) rat i.v.; for Absolute Potency (based on the average value of the four samples at -1 min.): average GH level at -1 min. 63.5 ng GH/ml plasma
Method: Adult female rats were used and were anesthetized with pentobarbital (6 mg/100 g, b.w.), injected i/p. 20 minutes after the injection of pentobarbital; blood samples were taken from the jugular vein (pretreated level) and immediately thereafter hpGH-RH^1-29 (as a control) or GH-RH^1-29 analogs were injected i.v. Blood samples were taken from the jugular vein 5, 15, 60 minutes after the injection. The blood samples were centrifuged, plasma was removed and the GH level was measured by RIA.
In vivo Effects of synthetic GHRH analogs on the release
of pituitary GH following one single i.v. injection of 1.0

release of GH = experiment: In vivo release of GH in male testosterone primed rats, 4-point assay method; design: species or system rat; conditions: for potency range / sample potency: 4-point assay versus Standard (GHRH^1-29); for plasma Gh level: i.v., individual values
Method: In vivo effect of synthetic GHRH analogs on the release of
GH in male testosterone primed rats. Results were
calculated by the 4-point assay method.
Doses injected are in μg/100 g. b.w., i.v.

[2] = 5 minutes after injection, dose 0.025 μg/100 g. b.w.
[3] = 5 minutes after injection, dose 0.1 μg/100 g. b.w.
[4] = 15 minutes after injection, dose 0.025 μg/100 g. b.w.
[5] = 15 minutes after injection, dose 0.1 μg/100 g. b.w.

Compound	Released GH Level Average [1] [ng/mL]	Released GH Level [1]	Potency % [1] [%]	potency range (release of GH; 5 minutes after injection)	sample potency (release of GH; 5 minutes after injection) [%]	plasma Gh level (release of GH; [2])	plasma Gh level (release of GH; [3])	potency range (release of GH; 15 minutes after injection)	sample potency (release of GH; 15 minutes after injection) [%]	plasma Gh level (release of GH; [4])	plasma Gh level (release of GH; [5])	also measured
CCCC[C@H](NC(=O)[C@@H](NC(=O)[C@H](CC(=O)O)NC(=O)[C@H](CCC(N)=O)NC(=O)[C@H](CC(C)C)NC(=O)[C@H](CC(C)C)NC(=O)[C@H](CCCCN)NC(=O)[C@H](CCCNC(=N)N)NC(=O)[C@H](C)NC(=O)[C@H](CO)NC(=O)[C@H](CC(C)C)NC(=O)[C@H](CCC(N)=O)NC(=O)CNC(=O)[C@H](CC(C)C)NC(=O)[C@@H](NC(=O)[C@H](CCCCN)NC(=O)[C@H](CCCNC(=N)N)NC(=O)[C@H](Cc1ccc(O)cc1)NC(=O)[C@H](CO)NC(=O)[C@H](CC(N)=O)NC(=O)[C@@H](NC(=O)[C@H](Cc1ccccc1)NC(=O)[C@@H](NC(=O)[C@H](C)NC(=O)[C@H](CC(=O)O)NC(=O)[C@@H](C)NC(=O)[C@@H](N)Cc1ccc(O)cc1)[C@@H](C)CC)[C@@H](C)O)C(C)C)[C@@H](C)CC)C(=O)N[C@@H](CO)C(=O)NCCCCNC(=N)N [Example XV] (H-Y[dA]DAIFTNSYRKVLGQLSARKLLQDI[Nle]S-Agmatine)	70.25	75.00 ng/mL and 65.50 ng/mL	176	64-331%	146	270 ng·mL and 180 ng·mL and 400 ng·mL and 280 ng·mL and 160 ng·mL and 210 ng·mL	900 ng·mL and 249 ng·mL and 790 ng·mL and 160 ng·mL and 350 ng·mL and 710 ng·mL and 377 ng·mL	12-226%	53	100 ng·mL and 70 ng·mL and 120 ng·mL and 90 ng·mL and 80 ng·mL	200 ng·mL and 80 ng·mL and 250 ng·mL and 70 ng·mL	Relative Potency (based on the effect of hpGHRH at the actual time) (release of pituitary GH; time +5 min): 76%; Responses in plasma GH in ng GH/ml (release of pituitary GH; time +5 min): 190 ng/mL; Absolute Potency (based on the average value of the four samples at -1 min.) (release of pituitary GH; time +5 min): 299%; Relative Potency (based on the effect of hpGHRH at the actual time) (release of pituitary GH; time +15 min): 180%; Responses in plasma GH in ng GH/ml (release of pituitary GH; time +15 min): 247 ng/mL; Absolute Potency (based on the average value of the four samples at -1 min.) (release of pituitary GH; time +15 min): 389%; Relative Potency (based on the effect of hpGHRH at the actual time) (release of pituitary GH; time +60 min): 113%; Responses in plasma GH in ng GH/ml (release of pituitary GH; time +60 min): 33 ng/mL; Absolute Potency (based on the average value of the four samples at -1 min.) (release of pituitary GH; time +60 min): 52%; Relative Potency (based on the effect of hpGHRH at the actual time) (release of pituitary GH; time -1 min (pretreated level)): 54%; Responses in plasma GH in ng GH/ml (release of pituitary GH; time -1 min (pretreated level)): 36 ng/mL; Absolute Potency (based on the average value of the four samples at -1 min.) (release of pituitary GH; time -1 min (pretreated level)): 56%
CCCC[C@H](NC(=O)[C@@H](NC(=O)[C@H](CC(=O)O)NC(=O)[C@H](CCC(N)=O)NC(=O)[C@H](CC(C)C)NC(=O)[C@H](CC(C)C)NC(=O)[C@H](CCCCN)NC(=O)[C@H](CCCNC(=N)N)NC(=O)[C@H](C)NC(=O)[C@H](CO)NC(=O)[C@H](CC(C)C)NC(=O)[C@H](CCC(N)=O)NC(=O)CNC(=O)[C@H](CC(C)C)NC(=O)[C@@H](NC(=O)[C@H](CCCCN)NC(=O)[C@H](CCCNC(=N)N)NC(=O)[C@H](Cc1ccc(O)cc1)NC(=O)[C@H](CO)NC(=O)[C@H](CC(N)=O)NC(=O)[C@@H](NC(=O)[C@H](Cc1ccccc1)NC(=O)[C@@H](NC(=O)[C@H](C)NC(=O)[C@H](CC(=O)O)NC(=O)[C@@H](C)N(C)C(=O)[C@@H](N)Cc1ccc(O)cc1)[C@@H](C)CC)[C@@H](C)O)C(C)C)[C@@H](C)CC)C(=O)N[C@@H](CO)C(=O)NCCCCNC(=N)N [Example X] (H-Y[dNMeA]DAIFTNSYRKVLGQLSARKLLQDI[Nle]S-Agmatine)	85.75	99.00 ng/mL and 72.50 ng/mL	214	45-174%	88	216 ng·mL and 269 ng·mL and 250 ng·mL and 110 ng·mL and 270 ng·mL and 86 ng·mL	300 ng·mL and 310 ng·mL and 440 ng·mL and 590 ng·mL and 550 ng·mL and 430 ng·mL and 272 ng·mL	86-315%	165	100 ng·mL and 109 ng·mL and 75 ng·mL and 63 ng·mL and 80 ng·mL and 43 ng·mL	267 ng·mL and 178 ng·mL and 238 ng·mL and 470 ng·mL and 310 ng·mL and 200 ng·mL and 140 ng·mL	
